Measurements reported in PubChem BioAssay AID1362 (SRMLSC, 2008).
Some of the results follow. These are further read-outs of the screen, such as a control signal, another cell line or another target. No call is given for them. Most of these compounds were active or inconclusive in the main read-out, so they are no random draw.

Assay: growth inhibition of WT strain, primary screen, mitochondrial fusion inhibitor project, WT and mutant strains, chemical genetic (AID 1362); also: tested in S. cerevisiae
Conditions: mitochondrial fusion phenotypic screen, at 10 µM

Compound | inhibition [%]
S=C(NCc1ccc2[nH]c3c(c2c1)CCCC3)Nc1ccccc1 | 47
N#CCc1ccc(NS(=O)(=O)c2ccc(C3CCCCC3)cc2)cc1 | 2.1
CC(C)(C)[C@@H]1C=C(C(=O)N2CCN(Cc3ccc4c(c3)OCO4)CC2)O[C@H](OCc2ccc(CO)cc2)C1 | 60.4
COc1cccc(C(=O)N/N=C(/c2ccccc2)c2ccccn2)c1 | 33.7
CCOC(=O)c1c(N)sc(C(O)(C(F)(F)F)C(F)(F)F)c1-c1ccccc1 | 33.9
N#Cc1c(NC(=S)NC(=O)C2CCCC2)sc2c1CCCCC2 | 5.24
COc1cc(OC)cc(C(=O)N2CCC(n3c(C)nc4cc(F)ccc43)CC2)c1 | 14.4
CC(C)c1ccc(-c2noc(C3CCCN(C(=O)c4ccc(F)cc4F)C3)n2)cc1 (stereo not given) | 27.8
CCC[C@@H]1C[C@@]1(CCC)[C@@H](NP(=O)(c1ccccc1)c1ccccc1)c1ccc(C(=O)OC)cc1 | -0.22
CC(C)SCc1cc(N2CCCC2)nc(-c2ccccc2)n1 | 0.55
COc1cc(/C=N/NC(=O)CCc2ccccc2)ccc1O | 6.57
Cc1ccc(-c2nnc3sc(C4COc5ccccc5O4)nn23)cc1 (stereo not given) | 43
S=c1[nH]c(-c2ccccc2)cn1/N=C/c1ccccc1Br | 62.8
Cc1cccc(Cn2c(Cc3ccccc3)nc3ccccc32)c1 | 51.5
CCOC(=O)C1(S(=O)(=O)c2ccc(Cl)cc2)CCN(Cc2ccc(C)cc2)CC1 | 46.9
COc1ccc(Br)cc1CN(C)CC(=O)Nc1ccccc1Cl | 16.6
S=c1[nH]nc(Cc2ccc(Br)cc2)n1/N=C/c1ccc(Cl)cc1 | 85.7
Cc1ccccc1COC(=O)c1nn(-c2ccccc2)nc1N | 7.64
CCOC(=O)/C(=C/c1c2ccccc2cc2ccccc12)NC(=O)c1ccccc1 | 44.8
CN(C)c1ccnc(N(Cc2ccccc2)Cc2ccccc2)c1C#N | 65.8
Cc1ccc(NC(=S)Nc2ccc(OC(F)F)c(Cl)c2)cc1F | 60.9
O=C(N/N=C/c1cccc(F)c1)c1cc(-c2ccco2)nc2ccccc12 | 10.2
CN(C)CCCN(C(=O)/C=C/c1cccs1)c1nc2ccc(F)cc2s1 | 83.9
O=C(Nc1ccccc1Cc1ccccc1)c1ccccc1NS(=O)(=O)c1ccc(Cl)s1 | 67.6
Cc1ccc(NCc2n[nH]c(=S)n2Cc2ccccc2)cc1Cl | 30.2
Cc1scc(-c2n[nH]c(=S)n2Cc2ccccc2)c1C | 34.1
FC(F)(F)c1cc(Sc2ccccc2)nc(-c2ccccn2)n1 | 55.8

Compound | inhibition [%]
CCOC(=O)Cc1c(Sc2ccccc2)c2cc(C)ccc2n1C | -1.94
CCc1cc(-c2n[nH]c(C)c2Oc2ccc(C(C)C)cc2)c(O)cc1O | 81
COc1cc(/C=C2/SC(=S)NC2=O)ccc1OS(=O)(=O)c1ccc(C)cc1 | 35.2
Cc1cc(C)nc(N2CCC(C(=O)NCCc3ccc(F)cc3)CC2)n1 | 16.7
Clc1cccc(-c2cc3nc4c(c(N5CCN(c6cnccn6)CC5)n3n2)CCCC4)c1 | 22.8
Oc1nc(Nc2ccc(Cl)cc2Cl)sc1/C=C1\C=Nc2ccccc21 | 40
CCOC(=O)N1CCC(NC(=O)c2cc(-c3ccc(F)cc3)[nH]c2C)CC1 | -5.91
CN(C)c1cc(N/N=C\c2ccccc2)nc(N(C)C)n1 | 44.9
Cc1ccc2c(c1)c(N=O)c(O)n2Cc1ccc(Cl)cc1 | 24.5
COc1ccc(C(C(=O)NC2CCCC2)N(Cc2ccccc2)C(=O)c2nsc(Cl)c2Cl)cc1 (stereo not given) | 23.5
CC1CCc2c(sc(NC(=O)COC(=O)c3ccc(O)cc3)c2C#N)C1 (stereo not given) | 20.3
CCC1=NN2C(=N)/C(=C\c3cccn3-c3cccc(Cl)c3)C(=O)N=C2S1 | 17.3
CSC(=S)N/N=C(\C)c1ccccc1 | 37.2
Cc1nn(C(C)(C)C)c(OC(=O)c2cccs2)c1Sc1ccccc1 | 22.5
NC(=O)c1cc(Cc2ccccc2)sc1NC(=O)c1ccco1 | 66.3
C/C(=N\NC(=O)COc1ccc(C(C)(C)C)cc1)c1ccc(-n2ccnc2)cc1 | 68.1
Cc1ccc(C)c(C(=O)N(Cc2nc(-c3ccc(Cl)cc3)no2)C(C)C)c1 | 25.7
Cc1cccc(NC(=S)NNC(=O)COc2ccc(Cl)cc2Cl)c1 | 11.9
CCNc1nc(SCCOc2ccc(Cl)cc2Cl)nc(N(C)C)n1 | 8.4
Cc1ccccc1S(=O)(=O)c1c(C)cc(C)n(CC(C)C)c1=O | 17.2
CCN1CCN(c2cc(N3CCc4ccccc4C3)c(F)cc2[N+](=O)[O-])CC1 | 33.5
CC(C)COc1ccc(CNC(=S)NCc2ccccc2)cc1 | 66.2
COc1ccc(-c2csc(Nc3ccc(C)cn3)n2)cc1 | 54.5
S=C(NNc1cccc(Cl)c1)NC1CCCCC1 | 25.3
C/C(=N\NC(=O)c1ccccc1O)c1ccc(Br)s1 | 64.4
N/C(=N/O)c1ccccc1N1CCC(Cc2ccccc2)CC1 | 64.7
Cc1cccc2nc(CSc3ccc(Cl)cc3)cn12 | 61.2

Compound | inhibition [%]
Cc1cc(C)n(CC(O)Cn2c3ccc(Br)cc3c3cc(Br)ccc32)c(=O)n1 (stereo not given) | 5.42
CCCc1cc(-c2nc(-c3ccc(Br)cc3)cs2)ccn1 | 62.1
O=S(Cc1ccc(Br)cc1)Cc1nnc(SCc2ccc(Br)cc2)n1-c1ccccc1 (stereo not given) | -3.35
COC(=O)c1c(NC(=O)CN2CCC3(O)CCCCC3C2c2ccc(F)cc2)sc(C)c1C (stereo not given) | -0.63
COc1ccc2c(c1)C=C(C(=O)NCc1ccc(Cl)cc1)CO2 | 50.4
CCOC(=O)c1c(CN2CCN(Cc3ccccc3)CC2)n(C)c2cc(Br)c(OC)cc12 | 90.5
Cc1ccc(C(=O)c2c(NC(=O)c3cccnc3)sc3c2CCCC3)cc1 | 29.5
CC(C)c1ccc(S(=O)(=O)/N=C2/C=CC(=O)c3ccccc32)cc1 | 15.8
O=[N+]([O-])c1ccc(NCCCNS(=O)(=O)c2ccc(Cl)cc2)c(Cl)c1 | 25.5
NC(=O)c1ccc(NC(=O)COC(=O)c2c3c(nc4ccccc24)/C(=C\c2cccs2)CCC3)cc1 | 38.5
COc1ccc(C(C)(C)C)cc1NC(=O)c1cncc(Br)c1 | -1.97
Cc1cc(C)c(S(=O)(=O)/N=C2/C=C(SCC(=O)O)C(=O)c3ccccc32)cc1C | 43
O=C(CSc1nnc(CCc2ccccc2)n1-c1ccc(Cl)cc1)c1ccccc1 | 4.34
Fc1ccc(N2CCN(C3=Nc4cccc5cccc3c45)CC2)cc1 | 34
Cc1ccc(NC(=O)C2(c3ccccc3)CC2(Cl)Cl)cc1C (stereo not given) | -12.2
CCNc1nc(NC(C)C)nc(N(C#N)CCOc2ccc(Cl)cc2Cl)n1 | 39.4
O=[N+]([O-])c1ccc(N/N=C\c2cccn2-c2ccccc2)nc1 | 38.5
COc1cc(Cl)cc(/C=C/c2ccc3ccccc3n2)c1OC(C)=O | 25.1
Cc1nc(Nc2ccc(Cl)cc2Cl)sc1C(=O)Nc1ccccc1 | 61.3
CC1C/C(=N\NC(=S)NCc2ccccc2)CC(C)(C)C1 (stereo not given) | 62.3
CC1C(c2ccccc2)N(C)C(c2ccccc2)CC1(O)c1ccc(F)cc1 (stereo not given) | 22.1
COc1ccccc1N1CCN(c2ncc(C(=O)N3CCN(c4cccc(Cl)c4)CC3)c3ccccc23)CC1 | 46.3
O=C(Nc1nc(-c2ccccc2)cs1)c1ccccc1NS(=O)(=O)c1ccc(F)cc1 | 58.2
COC(=O)C1=CN(CCOC23CC4CC(CC(C4)C2)C3)C=C(C(=O)OC)C1c1ccsc1 | 3.15
CCc1nc(N2CCC(C)CC2)c2oc3ccccc3c2n1 | 65.5
COc1ccc(-c2cc3nc(C)cc(N4CC(C)CC(C)C4)n3n2)cc1 (stereo not given) | 8.88
COc1ccc(/C=C/C(=O)c2cc(Br)ccc2OC(=O)c2ccco2)cc1OC | 34.2

Compound | inhibition [%]
COc1cccc2c1C(=O)c1c(O)c3c(c(O)c1C2=O)C[C@@](O)(C(C)=O)C[C@@H]3O[C@H]1C[C@H](N)[C@H](O)[C@H](C)O1 | 50.4
Cc1ccc(C)c(NC(=O)c2cc(-c3ccccc3)nn2-c2ccccc2)c1 | -3.55
Cc1cc(C)cc(NC(=S)NCCSc2ccc(Cl)cc2)c1 | 28.4
O=[N+]([O-])c1ccc2nc(/C=C/c3ccc(Cl)cc3)[nH]c2c1 | 57.5
CCCN(CCC)CCCNC(=O)CS(=O)Cc1nc(-c2ccc(OC)c(OC)c2)oc1C (stereo not given) | 0.8
Cc1cc(C)c(CSc2ncnc3nc[nH]c23)c(C)c1 | 66.4
O=C(/C=C/c1ccc(N2CCCCC2)c([N+](=O)[O-])c1)c1ccc(O)cc1 | 83.8
Cc1cccc(Nc2nc(N)c([N+](=O)[O-])c(N3CC(C)CC(C)C3)n2)c1 (stereo not given) | 83.4
NC(=O)c1ccc(N2CCCCC2)c(N2C(=O)C3CC=CCC3C2=O)c1 (stereo not given) | -0.48
O=S(=O)(Nc1nc2ccccc2nc1NCc1ccco1)c1ccc(Cl)cc1 | 18.7
Oc1c(Br)cc(Br)cc1CNc1ccc(F)cc1 | 51.8
Cc1cc(C)c(C#N)c(N2CCN(CCOc3ccc(Cl)cc3)CC2)n1 | 49.6
Cc1ccc(S(=O)(=O)c2c(C)nn(C(C)(C)C)c2OC(=O)C2CCCC2)cc1 | 26.8
CN(C)c1nc(-c2ccccn2)nnc1-c1ccccc1 | 58.3
Cc1ccc(-c2c(C(=O)N(C)Cc3ccccc3)oc(=O)c3ccccc23)cc1 | 33.6
COc1ccc(C(=O)c2c(C(F)(F)F)oc3c2C(=O)c2ccccc2C3=O)cc1OC | 76.7
COCCN1C(=O)/C(=C/c2ccc(OCc3ccc(C(=O)O)cc3)c(OC)c2)SC1=Nc1ccccc1 | 6.07
O=C(N/N=C/C(Br)=C/c1ccccc1)NC1CCCCC1 | 86
CCOC(=O)C(CC)(CC)C(=O)/C=C/c1ccc(Br)cc1 | 12.7
CCCc1cc(C(=O)Cc2ccc(F)cc2)c(O)cc1O | 41
CN(C(=S)Nc1ccc(SC(F)F)cc1)c1ccc(O)cc1 | 31.4
O=C(/C=C/c1ccco1)Nc1ccccc1N1CCCCC1 | 20.9
CC(C)(C)c1ccc(OCC(=O)N2CCCCCC2)c(Br)c1 | 15.8
Cc1cc(C)n(-c2nc3sc4c(c3c(=O)[nH]2)CCCC4)n1 | 65.4
